Test results published in patent US20150011394A1 (priority 2012, published 2015).
Several values for one entry are separate records, joined by “and”; a condition that tells them apart may be missing. Equal values may be shown once.

What was measured:
Settings in all cases: in vivo
[1] = system: Pseudomonas syringae pv. lachrymans
Excerpt: The cucumber plants were inoculated at BBCH14 stage (4th true leaf fully unfolded stage) on potted plants protected in preventative.

[2] = system: Streptomyces scabies
Procedure: Trial Locations were Sahiwal, Faisalabad, and Lahore in Pakistan.
Potato tubers were treated once at the time of sowing. The tuber quantity (seed) was determined according to plot size and weighed out separately for each treatment. Then product quantity was calculated and measured according to weight of tuber for each treatment on the basis of dose rate per 100 kg tuber. The water volume was calibrated to give proper coverage. The product was mixed in the calibrated volume of water for each treatment separately. The tubers were spread on a plastic sheet, sprayed thoroughly, dried, turned to the other side and sprayed thoroughly again. It was ensured that every seed has been covered with the product. After drying the tubers were sown in the marked plots. Preferably medium sized Potato tubers were used for sowing. In order to ensure disease infestation, infected tubers having a disease incidence of about 10% Potato Tuber Bacterial Scab were used.
At harvesting, the percentage of disease of potatoes for each treatment was determined and the efficacy was calculated according to ABBOTT (% efficacy). 0% means an efficacy which corresponds to that of the control, while an efficacy of 100% means that no disease was observed.

[3] = system: Xanthomonas campestris pv. citri
[4] = system: Pseudomonas syringae pv. lachrymans; remark: listed apart in the source
Excerpt: The cucumber plants were inoculated at BBCH13 stage (third true leaf fully unfolded stage) on potted plants protected in preventative.

[5] = system: Pseudomonas syringae pv. tomato

Row | Structure (SMILES) | % efficacy (Abbott), No. of lesions on 15 leaves [1] | Faisalabad Efficacy [% Abbott] [2] | Lahore Efficacy [% Abbott] [2] | Sahiwal Efficacy [% Abbott] [2] | % efficacy (Abbott), incidence on leaves [3] | % efficacy (Abbott), severity on leaves [4] | % efficacy (Abbott), severity index [5] | Disease severity index [5]
1 | N#Cc1ccccc1NC(=O)c1snc(Cl)c1Cl [Isotianil, isotianil] | 78% | 86 % Abbott and 49 % Abbott and 57 % Abbott | 79 % Abbott and 76 % Abbott and 77 % Abbott | 100 % Abbott and 67 % Abbott | 37% | 81% and 91% |  | 
2 | C=CCOC1=NS(=O)(=O)c2ccccc21 [PROBENAZOLE a.i., probenazole, reference compound] |  |  |  |  |  | 74% and 61% |  | 
3 | OCC1=C[C@H](N[C@H]2C[C@H](CO)[C@@H](O[C@@H]3O[C@H](CO)[C@@H](O)[C@H](O)[C@H]3O)[C@H](O)[C@H]2O)[C@H](O)[C@@H](O)[C@@H]1O [Validamycin, reference compound] |  | 47 % Abbott | 65 % Abbott | 33 % Abbott |  |  |  | 
4 | [Cl-].[Cu+2].[Cu+2].[OH-].[OH-].[OH-] [copper oxychloride] |  |  |  |  |  |  | 56.5% | 101.3
